Publication PMC6919601, “Identification of Plasmodium dipeptidyl aminopeptidase allosteric inhibitors by high throughput screening” (PLoS ONE, 2019)
In all, about 110,000 compounds went through this assay and about 230 (0.21%) showed an effect of 50% or more. The list shows a part of the results.

Each compound was assayed against DPAP1 (Plasmodium falciparum, UniProt Q8IIJ9) (assay: primary screen, percent inhibition; read by cleavage of a fluorogenic dipeptide substrate; higher = more effect of the substance).
DPAP1, sequence (Q8IIJ9 whole entry, looked up): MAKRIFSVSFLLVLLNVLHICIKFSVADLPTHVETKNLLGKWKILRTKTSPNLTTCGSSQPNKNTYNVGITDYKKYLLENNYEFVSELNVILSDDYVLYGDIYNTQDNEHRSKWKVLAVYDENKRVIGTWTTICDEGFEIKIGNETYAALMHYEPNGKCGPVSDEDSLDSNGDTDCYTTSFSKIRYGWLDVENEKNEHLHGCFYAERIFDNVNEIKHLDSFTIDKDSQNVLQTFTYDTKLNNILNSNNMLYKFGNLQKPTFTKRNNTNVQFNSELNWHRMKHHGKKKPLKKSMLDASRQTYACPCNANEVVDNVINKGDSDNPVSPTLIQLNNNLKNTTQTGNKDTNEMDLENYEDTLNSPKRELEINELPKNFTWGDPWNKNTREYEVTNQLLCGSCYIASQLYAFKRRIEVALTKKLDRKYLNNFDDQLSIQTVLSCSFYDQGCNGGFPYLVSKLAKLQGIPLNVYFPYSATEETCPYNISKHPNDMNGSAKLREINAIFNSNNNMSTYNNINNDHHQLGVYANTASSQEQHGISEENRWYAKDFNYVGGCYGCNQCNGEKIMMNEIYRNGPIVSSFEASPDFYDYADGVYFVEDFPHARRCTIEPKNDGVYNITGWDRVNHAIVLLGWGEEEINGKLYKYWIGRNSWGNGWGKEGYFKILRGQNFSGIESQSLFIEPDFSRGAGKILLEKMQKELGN
Parameters: species or system P. falciparum D10 trophozoite lysates; single well
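Also: 30 min substrate incubation versus DMSO and 10 µM JCP410 controls.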

In order of rising “% Inhibition @ 10 uM” value:
1. COc1ccc(C(C)NCc2ccncc2)cc1 (centres unmarked)  -9.67%
2. Cc1c2c(nc3c(C(=O)NC4CCCC4)cnn13)CCCC2  -7.73%
3. NC(=O)C1CCN(Cc2cccc(Cl)c2)CC1  -7.34%
4. CCOC(=O)C1=C(O)/C(=C\c2ccc(C(=O)OC)cc2)N=C1C  -7.23%
5. O=C1/C(=C\c2ccc(OCc3ccccc3)cc2)N2CCC1CC2  -6.78%
6. CC(C)C[C@H](NC(=O)C1CCCCCC1)C(=O)NCC#N  -6.46%
7. Cc1ccc(-n2ncc(C(=O)NC3CC3)c2C2CCN(C(=O)OC(C)(C)C)CC2)c(C)c1  -5.19%
8. CC(C)(C)c1nc(CN2CCOCC2)ccc1O  -4.61%
9. COc1ccc(S(=O)(=O)N2CCNCC2)cc1OC  -4.19%
10. COc1cccc2[nH]ccc12  -4.02%
11. COc1cc(/C=C2/C(=N)N3C(C)=CSC3=NC2=O)ccc1OCc1cc(=O)n2nc(C)sc2n1  -3.95%
12. CCN(CC)C(=O)C1CCCc2c1[nH]c1ccc(Cl)cc21 (centres unmarked)  -3.77%
13. Cc1cc(=O)n(CC(=O)NC2CCCCC2)c2c1c(C)nn2-c1cccc(F)c1  -3.6%
14. O=S(=O)(c1ccccc1)N1CCC2(Cl)CCCCC2C1c1ccccc1 (centres unmarked)  -3.53%
15. O=C(C[n+]1cc2sccc2c2cscc21)c1ccccc1  -3.45%
16. CCSC1=NC2(CCN(S(=O)(=O)c3ccccc3)CC2)N=C1c1ccccc1  -3.23%
17. CC(CCc1ccccc1)NC(=O)CCc1nnc2ccc(N3CCOCC3)nn12 (centres unmarked)  -3.1%
18. COc1ccc(OCC(=O)Nc2cc3oc4ccccc4c3cc2OC)cc1  -2.73%
19. CC(=O)Nc1ccc(S(=O)(=O)N(C2CCCCC2)C2CCCCC2)cc1  -2.56%
20. Cc1nc2ccc(S(=O)(=O)NCC(=O)Nc3ccccn3)cc2s1  -2.45%
21. Cc1cc(O)n2ncnc2n1  -2.41%
22. CC1CC(C)(C)NC(=S)N1CC(=O)N(C)Cc1ccccc1 (centres unmarked)  -2.4%
23. CC1=C(C(=O)Nc2cccnc2)C(c2cccs2)n2nc(-c3cccnc3)nc2N1 (centres unmarked)  -2.34%
24. CCOc1ccc(-c2nc3cc(N)ccc3o2)cc1  -2.03%
25. O=C(CN1CCN(C(=O)c2ccco2)CC1)Nc1c2c(nc3ccccc13)CCC2  -1.91%
26. O=S(=O)(c1ccccc1)c1cnc2ccc(Cl)cc2c1N1CCOCC1  -1.85%
27. CC(C)C[C@H](NC(=O)CNC(=O)c1ccccc1)C(=O)NCC#N  -1.82%
28. O=C(CSc1nc2cccnc2[nH]1)c1c[nH]c2ccccc12  -1.75%
29. CCSc1nnc(NC(=O)C2CC2c2ccccc2)s1 (centres unmarked)  -1.1%
30. O=C(CCCc1ccccc1)Nc1cccc(Br)c1  -0.712%
31. c1ccc2c(c1)oc1c(N3CCCCC3)ncnc12  -0.617%
32. CN(C)c1ccc(-c2ncnn2-c2cccc(O)c2)cc1  -0.233%
33. CC1CCN(C(=O)c2nn(C)c3c2CSc2ccccc2-3)CC1  0.00665%
34. Cc1cc(C)cc(NC(=O)c2ccc(OC(F)F)cc2)c1  0.13%
35. CCN(CC)CCN(C)Cc1ccc([N+](=O)[O-])cc1  0.162%
36. Cc1cc(NO)nc(-c2ccc(Br)cc2)n1  0.215%
37. O=C(O)c1ccc(NC(=O)c2cccc3c2-c2ccccc2C3=O)cc1  0.219%
38. CC1(C)CC(=O)C2=C(C1)OC(N)=C(C#N)C2c1ccccc1OCc1ccc(F)cc1 (centres unmarked)  0.674%
39. CCN1C(=O)C(CC(=O)NCCc2ccc(OC)cc2)N(CC)C1=O (centres unmarked)  0.686%
40. O=C(Nc1cc(Cl)c(Cl)cc1Cl)c1ccccc1F  1.26%
41. Cc1cccc(Oc2ccc(NC(=O)C3CCCCC3C(=O)O)cc2)c1 (centres unmarked)  1.34%
42. Cc1oc2ccc(OCC(=O)C(C)(C)C)cc2c1C(=O)OC(C)C  1.37%
43. O=C(Nc1cccnc1Cl)c1ccc2c(Cl)c3c(nc2c1)CCCC3  1.38%
44. CNc1nc2c(C)cccn2c(=O)c1/C=N/CCO  1.39%
45. O=C(Cn1sc2ccccc2c1=O)N1CCN(c2ccccn2)CC1  1.46%
46. Cc1[nH]nc2c1C(c1ccc(OCc3ccc(Cl)cc3Cl)cc1)C(C#N)=C(N)O2 (centres unmarked)  1.52%
47. COc1ccc(/C=C/C(=O)c2cccc([N+](=O)[O-])c2)cc1  1.7%
48. CC(=O)c1[nH]c(C(=O)O)c(C)c1C  1.74%
49. COc1ccccc1NC(=O)c1ccccc1N(C)S(C)(=O)=O  1.84%
50. COC(=O)C1=CN(C(C)C)C=C(C(=O)OC)C1c1ccc(Cl)cc1  1.86%
51. Cc1cccc(/C=C2\SC(=O)N(C)C2=O)c1  2.17%
52. c1ccc(-c2nc3c4ccccc4nc(N4CCc5ccccc5C4)n3n2)cc1  2.6%
53. COc1cc(/C=c2/sc3n(c2=O)C(c2ccccc2OC)C(C(C)=O)=C(C)N=3)ccc1O (centres unmarked)  3.24%
54. COc1ccc(CCNC(=O)Cc2ccc3c(c2)OCO3)cc1OC  4.11%
55. Cc1ccc(CN2COc3ccc4c(oc(=O)c5ccccc54)c3C2)cc1  4.13%
56. COCCNC(=O)CN(C)S(=O)(=O)c1c(C)cc(C)cc1C  4.44%
57. O=C(COc1ccc2ccccc2c1Br)N1CCCC1  4.49%
58. COc1ccc(OC)c(/C=C2/S/C(=N\c3ccccc3)N(C)C2=O)c1  4.56%
59. Cc1cccc(NC(=O)/C(=C\c2ccco2)NC(=O)c2ccsc2)c1  4.67%
60. C#CCn1cc(/C=C(/C#N)C(=O)Nc2ccc(Cl)cc2)c2ccccc21  5.31%
61. N#CC1=C(N)OC2=C(C(=O)c3ccccc3C2=O)C1c1ccc(C(F)(F)F)cc1 (centres unmarked)  5.45%
62. O=C(NCc1ccco1)C1CCCN(S(=O)(=O)N2CCOCC2)C1 (centres unmarked)  5.94%
63. COc1ccc2nc(NC(=O)C3CCCN(c4ncnc5c4nc4n5CCCCC4)C3)sc2c1 (centres unmarked)  7.61%
64. CC1CCCCN1CCNC(=O)CCCn1c(=O)c2cccn2c2cccnc21 (centres unmarked)  7.86%
65. CCOC(=O)c1c(CSc2ccccc2)n(C)c2ccc(O)c(CN3CCN(C)CC3)c12  9.47%
